# According to the supplement of paper PMC5655136:
# These are enrichments in a pooled selection; single values are uncertain.
# Test system: NB7
# Assay: fold depletion of shRNA, plasmid library share / infected cells without Dox share (9 days) (ratio); higher = more depleted after infection (more toxic, leaky expression from a Tet-inducible vector; NB7 is a neuroblastoma line without caspase-8)
# Settings: shRNA pool: CD95L ORF + CD95L 3'UTR + Venus libraries
# 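Further: shRNA barcodes quantified by deep sequencing of PCR amplicons from cellular DNA, counts expressed as percent of each subpool, ratio averaged over two biological duplicates.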
row,Sequence,fold depletion of shRNA
1,GACACCCTGGTGAACCGCATC,1.61
2,AGGAGCTGAGGAAAGTGGCCC,0.46
3,TTGTCAGCTACTAATGATGTT,5.27
4,ACGACGGCAACTACAAGACCC,0.646
5,CAAGTGGACCTTGAGACCACA,0.755
6,GTGCAGCTCGCCGACCACTAC,0.284
7,CACTCATCTTAGTGCCTGAGA,1.25
8,TTCGGCTTATATAAGCTCTAA,0.586
9,GGGCGAGGAGCTGTTCACCGG,1.37
10,GACACCTTTTAACTCACCTCT,1.4
11,AACGAGAAGCGCGATCACATG,2.45
12,CTCTCTGGTCAATTTTGAGGA,1.13
13,CCACAGCACAGGCCTGTGTCT,0.351
14,GAAAAGGACACCTTTTAACTC,0.327
15,TAAAGAGAGAATGTAGATATT,0.531
16,AAAGAGGCTGAAAGAGGCCAA,1.38
17,GATGTGCATTTTTGTGAAATG,0.651
18,CGAGAGTCTACCAGCCAGATG,3.03
19,ATTTAGGCAGATTGAAAAGGA,2.42
20,CATCCTGGTCGAGCTGGACGG,1.04
21,AGTAAGAAGACATGAACCAAG,2.01
22,TCTGTGCCCAGAAGGCCTGGT,36.7
23,AGCGCACCATCTTCTTCAAGG,1.11
24,GTCCTGCTTTCTGGAGTGAAG,5.25
25,AGCATCATCTTTGGAGAAGCA,1.72
26,AGCCACAAGGTCTACATGAGG,5.07

row,Sequence,fold depletion of shRNA
1,ATATCACCGCCGACAAGCAGA,5.78
2,GAAGGCCTGGTCAAAGGAGGC,0.683
3,TATAAGAAGGGTGGCCTTGTG,3.88
4,ACACAGCATCATCTTTGGAGA,1.31
5,GAAAGTGGCCCATTTAACAGG,1.61
6,GAAGCAGCACGACTTCTTCAA,2.14
7,AACATGTAATAAAAAGTATAT,0.876
8,CGCCGGGATCACTCTCGGCAT,1.3
9,CCACCGCCACCACTACCACCT,2.17
10,AATGGGAAGACACCTATGGAA,0.708
11,CATGAACCAAGTGGACCTTGA,2.7
12,ATCTTACCAGTGCTGATCATT,1.33
13,CACCCCTGAAGAAGAGAGGGA,2.27
14,GACCCTGAAGCTGATCTGCAC,0.744
15,GATTGTCAGCTACTAATGATG,2.57
16,CACAGGCCTGTGTCTCCTTGT,4.91
17,CCAGCTCTCCCTGGGCCCCTC,4.27
18,TTTGGAGAAGCAAATAGGCCA,0.903
19,AAAATCATTGATTGTCAGCTA,1.31
20,CTCTCCCTGGGCCCCTCCAGG,4.71
21,CTGGCAGCATCTTCACTTCTA,1
22,ACCACAGGGTTCAAAATGTCT,3.89
23,GACCCCAACGAGAAGCGCGAT,1.2
24,ACCGAGAATGTTGTATTCAGT,3.11
25,GCAGTGCCAGCTCTCCCTGGG,12
26,TAAGAAGACATGAACCAAGTG,0.395

# Same assay, conditions: shRNA pool: CD95 ORF + CD95 3'UTR + Venus libraries
row,Sequence,fold depletion of shRNA
1,GACACCCTGGTGAACCGCATC,1.52
2,TTGCAATCAAAGATGATAAAA,0.795
3,ATCAACTTCATGGAAAGAAAG,0.734
4,ACGACGGCAACTACAAGACCC,0.699
5,TTTGGGTGAAGAGAAAGGAAG,1.72
6,AGCTGAAGGGCATCGACTTCA,0.92
7,GGCCACAAGTTCAGCGTGTCC,1.49
8,GTGCAGCTCGCCGACCACTAC,0.454
9,AAGCGTATGACACATTGATTA,1.57
10,TTGTTTATAACTCTGAGAAGA,1.03
11,GGGCGAGGAGCTGTTCACCGG,1
12,ATTCCACTAATTGTTTGGGTG,0.989
13,GACTCAGAACTTGGAAGGCCT,0.893
14,ATGTAAACTGTGAAGATAGTT,1.07
15,TGCCCAAGTGACTGACATCAA,1.76
